From PMC6919601, “Identification of Plasmodium dipeptidyl aminopeptidase allosteric inhibitors by high throughput screening” (PLoS ONE, 2019)
The campaign covered roughly 110,000 compounds. About 230 (0.21%) showed an effect of 50% or more. Some of the results follow.

biological target: DPAP1 (Plasmodium falciparum, UniProt Q8IIJ9); assay: primary screen, percent inhibition; read by cleavage of a fluorogenic dipeptide substrate; higher = more effect of the substance; design: species or system P. falciparum D10 trophozoite lysates; single well
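Also: 30 min substrate incubation versus DMSO and 10 µM JCP410 controls.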

DPAP1, sequence (Q8IIJ9 whole entry, looked up): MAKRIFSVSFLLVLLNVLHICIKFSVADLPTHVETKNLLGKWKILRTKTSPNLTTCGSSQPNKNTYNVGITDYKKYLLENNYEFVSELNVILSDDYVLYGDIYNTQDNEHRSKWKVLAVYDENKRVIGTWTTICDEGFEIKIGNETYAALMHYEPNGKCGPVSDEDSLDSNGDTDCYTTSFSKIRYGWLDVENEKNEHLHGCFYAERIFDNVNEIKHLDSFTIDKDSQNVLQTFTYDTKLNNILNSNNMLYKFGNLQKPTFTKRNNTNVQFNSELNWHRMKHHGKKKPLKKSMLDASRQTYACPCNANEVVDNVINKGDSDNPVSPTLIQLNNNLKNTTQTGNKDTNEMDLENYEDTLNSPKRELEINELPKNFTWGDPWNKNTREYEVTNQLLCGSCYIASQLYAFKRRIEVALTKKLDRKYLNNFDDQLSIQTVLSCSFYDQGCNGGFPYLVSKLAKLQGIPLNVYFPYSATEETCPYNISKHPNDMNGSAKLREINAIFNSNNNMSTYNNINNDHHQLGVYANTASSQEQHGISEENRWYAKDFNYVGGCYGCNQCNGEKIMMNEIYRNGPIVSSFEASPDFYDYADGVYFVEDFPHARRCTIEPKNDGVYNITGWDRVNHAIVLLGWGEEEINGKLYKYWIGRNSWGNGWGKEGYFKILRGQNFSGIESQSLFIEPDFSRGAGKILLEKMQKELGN

| SMILES | % Inhibition @ 10 uM |
| --- | --- |
| CCCC(=O)Nc1ccccc1NC(=O)CCC | 5.08% |
| CCOC(=O)N1CCN(C(=O)C2CCC(CNS(=O)(=O)c3ccc(Cl)cc3)CC2)CC1 (stereo not shown) | 0.718% |
| CN1CCN(C(=O)C23CC4CC(CC(C4)C2)C3)CC1 | -5.5% |
| COc1ccc(C(=O)N2CCN(Cc3ccc(C)cc3C)CC2)cc1 | -3.5% |
| CCCN(CCC)C(=O)c1sc2nc(-c3ccc(OC)cc3)cn2c1C | -5.58% |
| CCCCSc1nnc(-c2ccc(Cl)cc2Cl)o1 | -5.32% |
| O=C(Nc1ccc(CN2CCOCC2)cc1)c1ccc2ccccc2c1 | -3.45% |
| CCSc1nc2c(c(=O)n(C)c(=O)n2C)n1Cc1ccccc1C | 3.46% |
| C/C(=N/NC(N)=S)c1cc(C(C)(C)C)cc2c1CCC2(C)C | -3.13% |
| Cn1nc(-c2ccccc2F)c2cc(C(=O)NCCCN3CCc4ccccc4C3)sc21 | -1.43% |
| CCn1nc(-c2ccc(C)cc2)nc2c(=O)n(C)c(=O)nc1-2 | -2.85% |
| Cc1ccc(C2=NN(CC(=O)NCc3cccnc3)C(=O)CC2)cc1 | -6.75% |
| Cc1ccc(-c2cc(-c3ccccc3)nc(/C(C#N)=C(\N)O)n2)cc1 | 1.87% |
| COc1cc(CN2CCSCC2)cc(OC)c1O | 2.33% |
| Cc1ccc(C(C)C)c(OCCCn2cnc3ccccc32)c1 | -5.92% |
| COc1c(C)cccc1C(=O)Nc1ccccc1N1CCN(C(=O)c2ccccc2)CC1 | -2.19% |
| O=c1c2ccccc2c(-c2ccccc2)nn1-c1ccc(Cl)c(Cl)c1 | -8.19% |
| CCOc1cc(/C=C2\C(=N)N3N=C(N4CCCC4)SC3=NC2=O)ccc1OCc1ccccc1 | 0.0579% |
| Cc1ccc(C(C)C)c(Oc2ccc(C#N)cc2)c1 | 4.17% |
| O=C(CN1N=C(c2ccccc2)CCC1=O)NC1CC1 | 2.18% |
| CCOc1ccc(CC(=O)N2N=C(C)CC2(O)C(F)(F)F)cc1 (stereo not shown) | -8.06% |
| O=C(COc1ccccc1)N1CCN(Cc2ccc3c(c2)OCO3)CC1 | -6.6% |
| COc1ccccc1-c1c(C)nn2c(NCCC3=CCCCC3)cc(C)nc12 | -5.58% |
| CN(C)Cc1c(O)ccc2[nH]cnc12 | 6.7% |
| Cc1c(C)c2cc(Cl)c3c(c2oc1=O)CN(Cc1ccco1)CO3 | -0.808% |
| N#CCNC(=O)C(Cc1ccc(C(=O)c2ccccc2)cc1)NC(=O)OCc1ccccc1 (stereo not shown) | -1.82% |

| SMILES | % Inhibition @ 10 uM |
| --- | --- |
| CCSc1nnc(-c2ccc(Cl)cc2Cl)o1 | 34% |
| CC1CCN(c2ccc3nnc(CCC(=O)NCc4ccc(F)cc4)n3n2)CC1 | -4.02% |
| CC(C)N1CCC(N2CCCCC2)CC1 | -2.48% |
| CC(NC(=O)c1ccco1)c1nc(-c2ccc(Cl)cc2)no1 (stereo not shown) | 2.41% |
| CCC(=O)NCCc1nc2ccccc2n1Cc1ccccc1F | 4.77% |
| CCN(CC)C(=O)C1CCCN(Cc2ccc(Cl)cc2)C1 (stereo not shown) | -0.127% |
| Cc1c(CNC(=O)c2cc3nc(-c4ccc5c(c4)OCO5)cc(C(F)(F)F)n3n2)cnn1C | 2.49% |
| O=C(Nc1ccccc1)N1CCCCCC1 | -3.45% |
| COc1ccccc1N1CCN(C(=O)c2cc(OC)c(OC)c(OC)c2)CC1 | -8.11% |
| N#C/C(=C/c1cccnc1)c1nc(-c2ccc(Cl)cc2)cs1 | 2.45% |
| COc1ccc2ccccc2c1/C=C1\NC(=S)NC1=O | 21.5% |
| COc1ccc(CN2CCN(c3cccc(C)c3C)CC2)cc1OC | 9.04% |
| N#Cc1cnn2c(C(F)(F)F)cc(-c3ccc4ccccc4c3)nc12 | -3.63% |
| CCOc1ccccc1NC(=O)c1ccccc1F | 1.08% |
| Cc1ccccc1-c1nc(CS(=O)(=O)CC(=O)N2CCOCC2)c(C)o1 | 3.19% |
| CC(=O)c1c(C)nc2ccccn12 | 4.26% |
| NC(=O)c1cc(S(=O)(=O)NCCN2CCCCCC2)cs1 | -0.538% |
| N#CCNC(=O)[C@H](Cc1cc(I)c(O)c(I)c1)NC(=O)OCc1ccccc1 | 1.7% |
| N#CCNC(=O)C1CCCCN1S(=O)(=O)c1ccc(-c2ccsc2)cc1 (stereo not shown) | 1.7% |
| Cc1ccnc(NS(=O)(=O)c2ccc(Cl)cc2)c1 | -1.42% |
| CCCNC(=O)CSc1cn(CC(=O)N2CCOCC2)c2ccccc12 | 3.74% |
| CCC(C)NC(=O)C(Sc1ccccc1)c1ccccc1 (stereo not shown) | 4% |
| O=C1N=C(N2CCOCC2)S/C1=C/c1cc(Br)ccc1O | 16.3% |
| CC(C)c1ccc(NC(=O)C23CC4CC(C2)CC(n2cncn2)(C4)C3)cc1 | 0.214% |
| Cc1nc(SCC(=O)NC(C)c2ccccc2)[nH]c1Cc1ccc(O)cc1 (stereo not shown) | 4.31% |
| O=C1CCCc2c1[nH]c1ccc(Oc3ccccc3)cc21 | 2.38% |

| SMILES | % Inhibition @ 10 uM |
| --- | --- |
| O=C(Cc1ccccc1)N1CCN(Cc2ccc(Br)cc2)CC1 | -1.04% |
| Cc1nc2nc(N3C(=O)c4ccc(C(=O)O)cc4C3=O)nn2c(O)c1Cl | -1.31% |
| CCCNC(=O)Cn1ncc2c3ccccc3n(Cc3cc(C)ccc3C)c2c1=O | -7.1% |
| Cn1cccc1Cc1nnc(SCC(=O)N2CCCCC2)n1-c1ccccc1 | -4.97% |
| COc1cc(CNc2ccc3[nH]c(O)nc3c2)cc(Cl)c1OCC(=O)NC1CCCCC1 | -4.63% |
| CCOc1ccc(-c2cc(CCCC(=O)NCc3ccc4c(c3)OCO4)no2)cc1 | -7.13% |
| CC1CCN(C(=O)Cn2cnc3c(nnn3Cc3ccc(F)cc3)c2=O)CC1 | 1.24% |
| CC(C)CN1C(=O)c2ccccc2C(C(=O)O)C1c1cccs1 (stereo not shown) | -3.31% |
| CC(C)CNS(=O)(=O)c1ccc(OCC(=O)N2CCC(C(N)=O)CC2)cc1 | 3.04% |
| CCc1ccc(N2C(=O)C(Cl)=C(N3CCN(C)CC3)C2=O)cc1 | 0.674% |
| Cc1nnc2c(N3CCCCC3C)nc3ccccc3n12 (stereo not shown) | 0.147% |
| O=C(NCc1ccco1)c1cc2nc(-c3ccccc3)cc(C(F)(F)F)n2n1 | 3.25% |
| Cc1cc(-c2ccc(NC(=O)C3CC3)c(C)c2)ccc1NC(=O)C1CC1 | 4.83% |
| CCSc1cc(N2CCCC2)nc(-c2ccc(F)cc2)n1 | -1.55% |
| Cn1c(=O)c2c(-c3ccc(Br)cc3)n(Cc3ccco3)cc2n(C)c1=O | 7.04% |
| COc1cccc(C(=O)N2CCN(Cc3ccc(OC)c(Br)c3)CC2)c1 | -2.34% |
| N#CC1(NC(=O)[C@H](CC2CCCCC2)N[C@@H](c2cccc(Br)c2)C(F)(F)F)CC1 | -3.14% |
| CCC(=O)N1CCN(CC/N=C/C2=C(O)CC(c3ccccc3)CC2=O)CC1 (stereo not shown) | -1.07% |
| Cc1c(C)n(CC(O)CNC2CCCCC2)c2ccccc12 (stereo not shown) | -5.13% |
| COC(=O)CC(O)C1CCOC(C)(C)C1 (stereo not shown) | -5.28% |
| OCCN1CCN(Cc2ccccc2)CC1 | -3.04% |
| COc1cccc(/C=C2\CC/C(=C\c3cccc(OC)c3OC)C2=O)c1OC | -8.21% |
| COc1ccccc1CN1C(=O)c2ccc(C34CC5CC(CC(C5)C3)C4)cc2C1=O | 4.74% |
| CCCCCn1c(=O)c(C(=O)Nc2ccc(N)cc2)c(O)c2ccccc21 | 2.46% |
| CCOC(=O)c1cc(-c2ccc(F)cc2)n(CC(=O)NC2CCC(C)CC2)c1C (stereo not shown) | -1.88% |
| O=C1/C(=C/c2ccccn2)N2CCC1CC2 | -0.305% |

| SMILES | % Inhibition @ 10 uM |
| --- | --- |
| CC(CNC(=O)CSCc1cnn(-c2ccccc2)c1-n1cccc1)c1ccccc1 (stereo not shown) | 0.413% |
| COC(=O)c1ccc(CSc2n[nH]c(-c3ccncc3)n2)o1 | -0.92% |
| Cc1cc2oc(C(=O)NC3CCS(=O)(=O)C3)cc(=O)c2cc1C (stereo not shown) | -3.24% |
| O=C(Nc1nc2ccccc2s1)c1cccc(Br)c1 | 9.64% |
| COc1cc(N)c(Cl)cc1NC(=O)c1ccccc1 | 4.6% |
| O=C(COC(=O)c1ccc(C(O)c2ccccc2)cc1)c1ccccc1 (stereo not shown) | 2.79% |
| COc1ccccc1NC(=O)c1cccs1 | -1.77% |
| CC12CN3CC(C)(CN(C1)C3c1c(O)ccc3ccccc13)C2 (stereo not shown) | -3.64% |
| O=C(Cn1cnc2ccc(Cl)cc2c1=O)c1cccs1 | 0.812% |
| Cc1cc(OCC(=O)Nc2ccc(S(=O)(=O)Nc3onc(C)c3C)cc2)ccc1Cl | -3.97% |
| CC(C)c1ccc(S(=O)(=O)Nc2ccc(O)c(Br)c2)cc1 | 2.53% |
| O=C(CCCCn1c(=O)[nH]c2ccsc2c1=O)NCc1ccc(Cl)cc1 | -7.33% |
| O=C(N/C(=C\c1ccccc1)C(=O)N1CCCCC1)c1ccco1 | 2.08% |
| O=C(Nc1cccc2c1CCCC2)c1ccc(Br)o1 | -0.795% |
| CCN1C(=O)S/C(=C/c2ccc(OC)c(C)c2OC)C1=O | -0.116% |
| CC(=O)c1ccc(NC(=O)C(C)c2cccc(C(=O)c3ccccc3)c2)cc1 (stereo not shown) | -1.52% |
| COc1ccc(N2C(=O)CC(NCCOC34CC5CC(CC(C5)C3)C4)C2=O)cc1 (stereo not shown) | -1.07% |
| Cc1ccc2nc(NC(C)C(=O)O)nc(-c3ccccc3)c2c1 (stereo not shown) | 2.38% |
| O=C(O)CCNc1cc(C(=O)O)ccc1C(=O)O | 1.42% |
| CCOc1ccc(C2NCCc3cc(OCC)c(OC)cc32)cc1 (stereo not shown) | -0.891% |
| Cc1ccc(-c2noc(CCC(=O)NCCN3CCOCC3)n2)cc1 | 3.51% |
| COCCCNc1ncnc2c1cnn2-c1ccc(Cl)cc1 | 5.84% |
| Fc1ccc(N2CCN(Cc3ccccc3Cl)CC2)cc1 | 1.55% |
| Cc1cc(C)c(NS(=O)(=O)c2nc3nc(C)cc(C)n3n2)c(Cl)n1 | -5.48% |
| COc1ccc2nc3sc(C(=O)N4CC(C)CC(C)C4)cc3cc2c1 (stereo not shown) | -5.67% |
